# Experimental data as given in PubChem BioAssay AID488969 (Vanderbilt High Throughput Screening Facility, 2010).
# In all, about 110,000 compounds were measured (“z-score”: median about -0.1, highest 2% from about 2 on). Some of the results follow.
# Target: Metabotropic glutamate receptor 8 (Rattus norvegicus) (UniProt P70579)
# Assay: rat mGluR8 modulators via GIRK flux, primary screen, cell-based, thallium flux, HTS (AID 488969)
# Conditions: HEK293 rat mGluR8, GIRK (G protein-gated inwardly rectifying potassium channel) thallium flux, FluoZin2; at 10 µM; stronger effect = higher value; submaximal glutamate (EC20) added with thallium
# Chain of UniProt P70579 (P70579 whole entry, looked up): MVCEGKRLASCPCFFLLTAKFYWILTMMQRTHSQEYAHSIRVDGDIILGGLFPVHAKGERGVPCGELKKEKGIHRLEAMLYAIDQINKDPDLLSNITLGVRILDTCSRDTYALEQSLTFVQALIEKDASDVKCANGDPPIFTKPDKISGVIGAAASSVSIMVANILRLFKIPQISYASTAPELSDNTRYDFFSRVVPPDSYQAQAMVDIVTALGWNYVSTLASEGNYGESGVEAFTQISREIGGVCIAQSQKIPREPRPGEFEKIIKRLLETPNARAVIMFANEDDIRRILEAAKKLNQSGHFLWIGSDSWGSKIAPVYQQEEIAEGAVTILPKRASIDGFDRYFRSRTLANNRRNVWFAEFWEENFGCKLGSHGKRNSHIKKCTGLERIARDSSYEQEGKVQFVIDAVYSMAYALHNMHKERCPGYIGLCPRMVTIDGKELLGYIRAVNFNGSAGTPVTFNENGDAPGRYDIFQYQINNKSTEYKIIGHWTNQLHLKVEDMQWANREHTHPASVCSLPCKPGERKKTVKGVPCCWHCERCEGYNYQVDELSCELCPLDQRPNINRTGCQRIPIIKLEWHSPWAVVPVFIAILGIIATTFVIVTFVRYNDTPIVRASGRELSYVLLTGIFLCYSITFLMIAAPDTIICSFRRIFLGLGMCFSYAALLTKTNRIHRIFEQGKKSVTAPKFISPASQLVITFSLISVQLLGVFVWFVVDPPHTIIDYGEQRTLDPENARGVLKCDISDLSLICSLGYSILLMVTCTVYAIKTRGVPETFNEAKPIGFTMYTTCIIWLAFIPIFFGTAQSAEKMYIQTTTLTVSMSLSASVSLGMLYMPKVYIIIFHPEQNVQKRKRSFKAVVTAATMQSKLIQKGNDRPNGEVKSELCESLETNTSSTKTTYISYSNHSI
row,SMILES,z-score
1,COc1cccc(CSc2nc3cc4c(cc3cc2C)OCCO4)c1,-0.176
2,Nc1nnnn1/N=C/c1ccc(N2CCCCC2)c([N+](=O)[O-])c1,1.18
3,COc1ccc(NC2CC(=O)N(C(C)C)C2=O)cc1 (configuration not stated),1.17
4,Cc1cc(OCCCn2cnc3ccccc3c2=O)ccc1[N+](=O)[O-],-0.824
5,Cc1ccc(-c2nn(-c3ccccc3)cc2CN(Cc2ccccc2)C(=O)CCC(=O)O)o1,-0.348
6,CCOC(=O)c1c(N)c(C#N)nn1-c1ccccc1C(=O)OC,0.616
7,CCCC(=O)c1ccc(N2CCN(C(=O)c3ccc(Br)cc3)CC2)c(F)c1,0.3
8,COC(=O)CC(NC(=O)c1ccc(C)cc1)c1ccccc1 (configuration not stated),-0.129
9,COC(=O)C1=C(C)N=C2SC(C#N)=C(N)N2C1c1cccc(OC)c1 (configuration not stated),-1.34
10,Cc1ccc(Cn2nnc3c(=O)n(CC(=O)N4CCN(c5ccccc5)CC4)cnc32)cc1,-0.895
11,CCOC(=O)c1ccc(Nc2nc(C)cc(C)c2C#N)cc1,-0.182
12,Cc1nc(NCCc2ccccc2F)c(C#N)c(C)c1[N+](=O)[O-],0.24
13,Cc1cc(C)cc(Oc2coc3cc(OC(=O)c4cccnc4)ccc3c2=O)c1,-0.809
14,O=C(c1cc2cc(Br)ccc2oc1=O)N1CCCC1,0.0138
15,COc1cccc(NC(=O)Nc2cc(NC(=O)Nc3cccc(OC)c3)c(C)nc2C)c1,-0.17
16,COc1ccc(C(=O)Oc2cccc(/C=N/NC(N)=S)c2)cc1,-0.117
17,CCOC(=O)C1=C(C)NC2=C(C(=O)C(C(=O)OCC)C(c3ccco3)C2)C1c1ccccn1 (configuration not stated),-0.284
18,CCOC(=O)c1[nH]c2ccccc2c1NC(=O)COC,-0.156
19,Clc1ccc(CSc2nnc(NC3=NCCCCC3)s2)cc1,0.0188
20,CCCOC(=O)Nc1nnc(CCC)s1,0.0541
21,COCCN(Cc1cc2cc(C)c(C)cc2nc1Cl)C(=O)Nc1ccccc1,-0.132
22,C=CCC(C)(NCc1ccccc1)c1ccccc1 (configuration not stated),0.26

row,SMILES,z-score
1,CC(NC(=O)COC(=O)c1ccco1)c1ccccc1 (configuration not stated),0.533
2,CCN(CC)c1ccc(C(=O)N/N=C(\C)c2cccc(OC)c2)cc1,0.289
3,COc1cc(C(=O)O/N=C2/C=CC(=O)C(C)=C2C)cc(OC)c1OC,0.811
4,C=CCSc1nnc2n(CCc3ccccc3)c(=O)c3c4c(sc3n12)COC(C)(C)C4,0.22
5,COc1ccc(C2C(C#N)=C(N)N(c3sc4c(c3C#N)CCCC4)C3=C2C(=O)CC(C)(C)C3)cc1OC (configuration not stated),0.32
6,c1ccc(-n2nnnc2NC2CCCCC2)cc1,-0.018
7,O=C(c1ccc(S(=O)(=O)N2CCCCC2)cc1)c1nnc(-c2ccc(Cl)cc2)o1,0.27
8,Cc1ccc(SCCNC(=O)c2cccc([N+](=O)[O-])c2C)cc1,-0.0182
9,COC(=O)c1c(C(=O)OC)c2oc3ccccc3n2c1Cl,-0.407
10,Clc1ccc(-n2nnnc2-c2cnc(-c3ccccn3)nc2-c2cccs2)cc1,-1.83
11,Cc1ccc(S(=O)(=O)Nc2ccc3c(c2)nc2n3CCN(Cc3ccccc3)C2)cc1,-0.43
12,Cc1ccc(S(=O)(=O)n2cc(-c3ccccc3)c(N)n2)cc1,-0.502
13,C=CCSc1nnc(-c2ccncc2)n1-c1ccc(OCC)cc1,-0.351
14,CC(C)Cc1nc(N2CCOCC2)c(C#N)c2c1COC(C)(C)C2,2.42
15,COc1ccc(CNC(=O)C2CC(=O)N(c3ccc(OCC(=O)N4C(C)CCCC4C)cc3)C2)cc1 (configuration not stated),0.0922
16,NS(=O)(=O)c1ccc(Nc2nc(-c3ccc(O)cc3O)cs2)cc1,-0.0985
17,O=C(Nc1ccccc1Oc1ccccc1)c1ccccc1F,-0.161
18,CN(C)c1ccc(-c2nn3c(C4CCCCC4)nnc3s2)cc1,0.961
19,Cc1[nH]c2c(ccc3ccccc32)c1C1C(CCN)C1(C)C (configuration not stated),0.0887
20,COc1ccc(OCc2nc3c4cc(OC)c(OC)cc4nc(=S)n3[nH]2)cc1,-0.409
21,COc1cccc(C2C(C(N)=O)=C(C)Nc3nc(CCCO)nn32)c1OC (configuration not stated),0.753
22,COC(=O)c1cccc(NC(=O)CCCOc2cccc(C)c2)c1,-0.406

row,SMILES,z-score
1,CN(C)CCCN(Cc1ccccc1)C(=S)Nc1ccc(OC(F)F)cc1,-0.428
2,Cc1cccc(N2CCCC2=Nc2ccc(Br)cc2C#N)c1,-0.254
3,COC(=O)C(C)Sc1nnc(Cc2cc(=O)[nH]c(=O)[nH]2)n1-c1cccc(OC)c1 (configuration not stated),0.0364
4,COc1ccc(C2c3c(oc4ccccc4c3=O)C(=O)N2c2ccc(C)cn2)cc1OC (configuration not stated),0.254
5,COc1ccc(-c2nnnn2C)cc1S(=O)(=O)NCc1ccccc1,0.502
6,CC(C)(C)OC(=O)N1CCOCCOCCN(C(=O)OC(C)(C)C)CCOCCOCC1,1.07
7,O=C(Nc1ccc(Cl)cc1)Nc1cccnc1,0.471
8,Cc1c(C(=O)Nc2ccc3c(c2)OCCO3)sc2nc(-c3ccccc3)cn12,0.0973
9,Cc1onc(-c2ccccc2Cl)c1C(=O)Nc1ccc(CN2CCCC2)cc1,0.171
10,Cc1cccc(N2CCN(C(=O)c3ccc4nc(-c5ccco5)c(-c5ccco5)nc4c3)CC2C)c1 (configuration not stated),-0.256
11,COC(=O)c1ccc(Cl)c(NC(=O)CN(c2ccc(OC)cc2)S(=O)(=O)c2ccccc2)c1,-0.285
12,O=c1[nH]c2cc3c(cc2cc1CN(Cc1ccc2c(c1)OCO2)Cc1nnnn1CC1CCCO1)OCO3 (configuration not stated),0.00294
13,Cc1cc(C)c(C)c(OCCCOc2cccc3cccnc23)c1,0.114
14,CC(C)Nc1cc(N2CCCC2)ccc1[N+](=O)[O-],-0.745
15,Cc1nc2ccc(Br)cn2c1NC(C)(C)C,0.582
16,CCn1c(=O)c(=O)[nH]c2cc(C(=O)NC3CC3)ccc21,-0.438
17,CC1CCN(c2nc3nonc3nc2N2CCC(C)CC2)CC1,-0.739
18,O=C(COc1ccc(Cl)cc1)NCc1nnc(SCC(=O)NCc2ccc3c(c2)OCO3)o1,0.889
19,Cc1cc(OCc2nc(-c3cccnc3)no2)c(C)cc1Br,0.358
20,CC1CC(=O)c2cnc(Nc3ccccc3)nc2C1 (configuration not stated),-0.16
21,CCN1CCN(C(=S)Nc2ccc([N+](=O)[O-])cc2)CC1,-0.0826
22,Nc1cc(Cl)nc(N/N=C/c2c(O)ccc3ccccc23)n1,0.0481

row,SMILES,z-score
1,O=C(CNC(=O)c1ccccc1F)OC(C(=O)Nc1cc(C(F)(F)F)ccc1Cl)c1ccccc1 (configuration not stated),-0.141
2,CCCC1(C(=O)O)NC(c2ccc(OC)cc2O)C2C(=O)N(c3ccc(OC)cc3)C(=O)C21 (configuration not stated),0.2
3,CC1CN(C(=O)c2ccc(C(=O)c3ccccc3)cc2)CC(C)O1 (configuration not stated),-0.13
4,CCCC(=O)NC(=S)Nc1ccccc1N1CCOCC1,-0.0717
5,Cc1nn(-c2ccccc2)c2c1C(c1ccc(F)cc1F)C(C#N)=C(N)O2 (configuration not stated),-0.569
6,Cc1cc(C(=O)O)sc1C,-0.186
7,O=S(=O)(Nc1nc2ccccc2nc1N1CCN(c2ccccc2F)CC1)c1ccc(Cl)cc1,0.484
8,O=C(O)c1cc(N2C(=O)C3C4C=CC(C4)C3C2=O)ccc1NCc1cccnc1 (configuration not stated),-0.31
9,Nc1ccc(C(O)(C(F)(F)F)C(F)(F)F)cc1,-0.145
10,O=C(NCC1CCCO1)c1ccc(COc2ccc(F)cc2)o1 (configuration not stated),0.0407
11,CCCn1c(/N=C/c2c[nH]c3ccccc23)nc2ccccc21,0.568
12,COc1ccc(C(=O)OCC(=O)Nc2ccc(F)cc2F)cc1OC,-0.249
13,CC(C)(C)c1ccc(S(=O)(=O)N2CCC(c3nc4ccc(Cl)cc4[nH]3)CC2)cc1,0.342
14,COC(=O)c1c(NC(=O)CN2CCOCC2)sc2c1CCC(C)C2 (configuration not stated),0.288
15,CCOc1ccc(CCNC(=O)CCc2nc(-c3ccc(OC)cc3)no2)cc1OCC,-0.515
16,O=C(CC1NC(=O)NC1=O)NC1(C(=O)NC2CCCCC2)CCCCC1 (configuration not stated),0.351
17,C/C(=N/NS(=O)(=O)c1ccc(F)cc1)c1ccc(NC(=O)c2ccc(C)o2)cc1,-0.145
18,CC1Cc2nc(SCC(=O)Nc3nc4ccccc4s3)n(C)c(=O)c2S1 (configuration not stated),-2.75
19,O=C(COc1ccccc1)Nc1cccc2c1CCCC2,-0.151
20,Fc1ccc(-c2csc(/C=C/c3ccc4c(c3)OCO4)n2)cc1,0.0193
21,COc1ccccc1/C=N/n1c(N)c(S(=O)(=O)c2cccs2)c2nc3ccccc3nc21,-0.0934
22,Fc1ccc2[nH]c3c(N4CCN(Cc5ccc6c(c5)OCO6)CC4)ncnc3c2c1,-0.419

row,SMILES,z-score
1,CCCOP(=O)(OCCC)c1c([N+](=O)[O-])cc(C(F)(F)F)cc1[N+](=O)[O-],0.203
2,COc1ccc(-n2c(SCC(=O)N3CCN(c4ccccc4)CC3)nc3c(c2=O)SCC3)cc1,-1.5
3,COc1ccccc1NC(=O)Cn1cc(C#N)c2ccccc21,-0.0322
4,O=C(Nc1ccc(N2CCCC2)c(S(=O)(=O)Nc2cccc(C(F)(F)F)c2)c1)c1cccs1,-0.233
5,O=C(N/N=C/c1cn(-c2ccccc2)nc1-c1cc2ccccc2o1)c1ccccc1Br,0.0996
6,COc1ccc(-n2c(SCC(=O)Nc3nc(C)cs3)nnc2-c2ccoc2C)cc1,-2.63
7,COc1ccccc1CN1CC(C(=O)N2CCN(c3ccc(F)cc3)CC2)CC1=O (configuration not stated),-0.0536
8,C/C(=N/NS(=O)(=O)c1ccc(Cl)cc1)c1cccc(O)c1,-0.136
9,Cc1ccc2nc(-c3ccc(NC(=O)COC(=O)c4ccc([N+](=O)[O-])o4)cc3)sc2c1,-0.184
10,Cc1ccc(-c2cccc(NC(=O)C3C(C(=O)O)[C@@H]4C=C[C@H]3C4)c2)o1 (some centres not stated),-0.227
11,COC(=O)c1ccccc1NC(=O)c1ccc(-c2ccccc2F)o1,0.12
12,O=C(c1csc2c1CCCC2)N1CCN(c2ncccn2)CC1,-0.37
13,CCOCCCN(Cc1cc2cc(C)cc(C)c2[nH]c1=O)C(=O)N(CC)CC,0.102
14,CS(=O)(=O)c1nc2ccccc2n1Cc1ccccc1,-0.0282
15,COc1cc(OC)c(NC(=O)CCNC(=O)Cn2ccc3ccccc3c2=O)cc1Cl,-0.293
16,Cc1ccc(-c2csc(NC(=S)NC(=O)c3cccs3)n2)cc1,-0.267
17,Cc1ccc(CNC(=O)Cn2cc(C(F)(F)F)ccc2=O)cc1,-0.0483
18,CN(C(=O)Cc1ccccc1)n1cnnc1,0.161
19,COc1ccc(N2C(=O)CSC2c2cccc(OC)c2OC)cc1 (configuration not stated),-0.163
